Source: PubChem BioAssay AID1240 (Sanford-Burnham Center for Chemical Genomics, 2008)
Screen size: about 50,000 compounds; about 800 (1.6%) showed an effect of 50% or more. Some of the results follow.

What follows are molecules tested against Bcl-2-like protein 10 (Homo sapiens) (UniProt Q9HD36) (assay: Phenotype converters, Bcl-B/TR3 peptide binding displacement, primary biochemical FP (AID 1240;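 further: 0% = Bcl-B with tracer peptide and DMSO and 100% = tracer peptide lacking Bcl-B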)). Settings: GST-Bcl-B / FITC-TR3 peptide fluorescence polarization; stronger effect = higher value; compound at 3.75 mg/L.
Sequence of UniProt Q9HD36 (Q9HD36 whole entry, looked up): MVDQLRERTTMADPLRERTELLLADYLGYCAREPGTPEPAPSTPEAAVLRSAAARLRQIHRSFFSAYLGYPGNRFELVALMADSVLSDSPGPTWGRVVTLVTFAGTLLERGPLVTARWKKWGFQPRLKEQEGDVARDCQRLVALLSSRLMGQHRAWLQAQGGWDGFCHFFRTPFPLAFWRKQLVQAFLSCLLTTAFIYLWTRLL

| SMILES | displacement [%] |
| --- | --- |
| CC(=O)Nc1ccc(OC/C=C(\C)Cl)cc1 | 10.9 |
| COc1ccccc1-c1c(C(F)(F)F)oc2cc(OCC(=O)O)ccc2c1=O | 2.8 |
| COc1cccc(NC(=O)c2ccc(F)cc2)c1 | -2.7 |
| O=C(Nc1ccc(F)c(Cl)c1)c1cc([N+](=O)[O-])ccc1Cl | -10.3 |
| C=CCn1c(C(C)O)nc2ccccc21 (stereo unspecified) | -6.8 |
| O=C(NCc1ccco1)/C(=C/c1cccnc1)NC(=O)c1cccc(Br)c1 | 18 |
| COc1cc(/C=N/NC(=O)c2ccc([N+](=O)[O-])cc2)ccc1OC(=O)c1sc2ccccc2c1Cl | 1.8 |
| CC1CCN(CCOCCOc2cc(Cl)ccc2Cl)CC1 | 6.3 |
| CC1=C(C(=O)Nc2ccccc2C)C(c2ccccc2O)NC(=O)N1 (stereo unspecified) | 5.4 |
| CCOc1ccc(NC(=O)Cc2ccc(Br)cc2)cc1 | 3.8 |
| CCCOc1ccc(N2C(=O)C3C4C=CC(C4=C(C)C)C3C2=O)cc1 (stereo unspecified) | 9.9 |
| Cc1ccc(S(=O)(=O)Oc2c(C=C3C(=O)CC(C)(C)CC3=O)[nH]c3ccccc23)cc1 | 14.6 |
| CCOc1ccc(NC(=O)c2cccc(Oc3ccccc3)c2)c([N+](=O)[O-])c1 | 7 |
| CC(/C=C/c1ccco1)=N/NC(=O)c1ccc([N+](=O)[O-])cc1 | 8.4 |
| O=[N+]([O-])c1ccc(/C=N/NS(=O)(=O)c2ccc(Cl)cc2)s1 | 2.3 |
| C=C1c2ccc(C)cc2NC(=O)N1CC | 10.5 |
| CCOc1ccc(C(=O)Nc2cc(-c3nc4ccc(C)cc4o3)ccc2Cl)cc1 | 1.1 |
| CN1C(=O)/C(=C\c2ccc([N+](=O)[O-])cc2)SC1=S | -5.5 |
| O=C1C=C/C(=N\S(=O)(=O)c2ccc(F)cc2)c2ccccc21 | 1.7 |
| CCCCCOC(=O)CCN1C(=O)/C(=C/c2ccccc2)SC1=S | 5.2 |
| COc1ccccc1NC(=O)C1CC1(c1cccc(C)c1)c1cccc(C)c1 (stereo unspecified) | -10.5 |
| COc1ccc(-c2cc(C(=O)Nc3cccc(Cl)c3)c3ccccc3n2)cc1OC | 4.5 |
| COCCN1C(=O)C(=O)/C(=C(/O)c2ccccc2)C1c1ccc(OC)cc1OC (stereo unspecified) | 8.4 |
| Cc1cc(Cl)ccc1NC(=O)/C=C/c1ccccc1 | -9.4 |

| SMILES | displacement [%] |
| --- | --- |
| Cc1ccc(N2CC(C(=O)Nc3ccc(C)c(C)c3)CC2=O)cc1 (stereo unspecified) | 10.7 |
| Cc1ccc(NC(=O)c2c(NC(=O)c3ccccc3Cl)sc3c2CCCCC3)c(C)c1 | 6.2 |
| CCSc1nnc(NC(=O)c2cccc(Br)c2)s1 | -4.4 |
| Cc1cc(NS(=O)(=O)c2ccc(NC(=O)c3cc(Cl)ccc3[N+](=O)[O-])cc2)no1 | -0.5 |
| Cc1ccc(C2Nc3ccccc3C(=O)N2c2ccc(C)cc2)cc1 (stereo unspecified) | 2 |
| CSCCOC(=O)COc1ccc(/C=N/NC(=O)c2ccc(CN3CCOCC3)cc2)cc1 | -0.8 |
| O=C1/C(=C\c2ccccc2F)SC(=S)N1CN1CCOCC1 | 12.9 |
| O=C1NC(=Nc2ccc(O)cc2)S/C1=C\c1ccc([N+](=O)[O-])cc1 | -18.9 |
| CCc1cc(=O)oc2cc(OCc3ccc(F)cc3)ccc12 | -1.3 |
| COC(=O)c1ccc(NC(=O)c2c(Cl)cccc2Cl)cc1 | 15.1 |
| Cc1ccc(NC(=O)CC2Sc3ccccc3NC2=O)cc1 (stereo unspecified) | 10 |
| COc1ccc(S(=O)(=O)NCCC(C)C)cc1 | 7.3 |
| COc1ccc(/C=C2\C(=O)NC(=O)N(c3ccc(C)cc3)C2=O)c(C)c1 | 8.4 |
| COc1cc(OC)c(C=C2C(=O)N(C)C(=O)N(C)C2=O)cc1Br | 1.1 |
| O=C1C(Cl)=C(N2CCN(c3ccccc3)CC2)C(=O)N1c1ccc(Br)cc1 | -7 |
| Cc1ccccc1NC1SC(=O)N(c2ccccc2)C1=O (stereo unspecified) | 1.8 |
| COC(=O)CCN1C(=O)/C(=C/c2cccc(OCc3ccccc3)c2)SC1=S | -1.3 |
| O=Cc1cc(Br)ccc1OCc1ccccc1F | -13.8 |
| CCOc1ccccc1NC(=O)c1cc(C(=O)O)ccc1C(=O)O | 15.9 |
| O=C(CN(c1ccc(Br)cc1)S(=O)(=O)c1ccccc1)N1CCc2ccccc2C1 | 1.2 |
| Cc1ccc(/C=C2\SC(=S)N(c3ccc(F)cc3)C2=O)o1 | 101 |
| COc1ccc(N(C(C)C(=O)N/N=C/c2cccs2)S(C)(=O)=O)cc1 (stereo unspecified) | 3.9 |
| Cc1ccc(N2CCN(/N=C\c3ccncc3)CC2)cc1 | -7.4 |
| O=C(Oc1ccc2c(C(F)(F)F)cc(=O)oc2c1)c1ccccc1 | 3.2 |

| SMILES | displacement [%] |
| --- | --- |
| Cc1csc(Nc2ccccc2)[n+]1CCO | 4.4 |
| COc1ccccc1-c1cc(-c2ccccc2)nc(SC)c1C#N | 5.1 |
| COc1cc(NC(=O)COc2ccc([N+](=O)[O-])cc2)ccc1NC(=O)c1ccco1 | 3.7 |
| CCOC(=O)c1cnc2cc(-c3cccc(F)c3)[nH]n2c1=O | 11.6 |
| COCCNC(=O)Cc1ccc(Br)cc1 | 13.1 |
| Clc1cccc(Cl)c1OCCN1CCCC1 | 3.9 |
| CC(C)OC(=O)c1c(NC(=O)C2CC=CCC2C(=O)O)sc2c1CCCC2 (stereo unspecified) | -2.8 |
| COc1ccc(S(=O)(=O)/N=C2C=C/C(=N\S(=O)(=O)c3ccc(OC)cc3)C=C/2Cl)cc1 | 16.5 |
| CC(C)(C)C(=O)Nc1ccc(S(=O)(=O)Nc2nccs2)cc1 | -4.8 |
| CCOc1cc([N+](=O)[O-])cc(/C=C2/SC(=S)NC2=O)c1O | 14 |
| O=C(CSc1nc2ccccc2o1)N=Nc1c(O)n(CN2CCCC2)c2ccccc12 | -16.2 |
| CCOC(=O)C1=NN(C(=O)c2ccc(Cl)cc2)C(O)(C(C)(C)C)C1 (stereo unspecified) | 0.6 |
| Cc1cc(C)c(-c2nn(-c3ccccc3)cc2C=O)c(C)c1 | 10.9 |
| COc1cccc(/C=C2/C(=O)NC(=O)N(C)C2=O)c1O | -5.3 |
| O=C(CCNc1cccc(Br)c1)c1cccs1 | 0.1 |
| CCOc1ccccc1NC(=O)C1(c2ccccc2)CC1(Cl)Cl (stereo unspecified) | -4.5 |
| CCc1c(C)nc2cc(-c3cccc(C)c3)[nH]n2c1=O | 8.8 |
| CN1CCC(=NNC(=O)c2cccc([N+](=O)[O-])c2)CC1 | 10.6 |
| Cc1ccccc1C(=O)Nc1c(C(=O)N2CCN(C)CC2)cnn1-c1ccccc1 | 4.7 |
| O=C(/C=C/c1ccccc1)NC(=S)Nc1ccc(O)c(-c2nc3ccccc3o2)c1 | 14.2 |
| COCCCNC(=O)CC(=O)N/N=C/c1cc(OC)c(OC)c(OC)c1 | -9.1 |
| Cc1ccc(S(=O)(=O)CCc2nc3ccccc3s2)cc1C | 2.5 |
| CCc1ccc(NC(=O)CCCOc2ccccc2)cc1 | -1.9 |
